Reference: publication PMC6212790
The list shows a part of the results. At the low end of the ranking the order means little.

Biological target: T1, GST-Rok (full length) (UniProt O34857)
T1 sequence: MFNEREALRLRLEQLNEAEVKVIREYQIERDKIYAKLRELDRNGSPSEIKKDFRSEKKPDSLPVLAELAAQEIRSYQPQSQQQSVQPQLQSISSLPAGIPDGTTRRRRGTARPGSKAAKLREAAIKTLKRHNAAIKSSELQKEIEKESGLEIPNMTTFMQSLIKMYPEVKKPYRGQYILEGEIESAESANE
Test: protein binding microarray;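 also: rank score from −0.5 (least bound) to 0.5 (best bound)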
Conditions: Rok is a gene silencer of Bacillus subtilis; high values mean tight binding; most listed sequences are background and not binding sites; double strand, one strand shown

Sequence	binding signal [E-score]
ACATGCTC	0.0616
AACCCCTC	-0.277
TACCCAAA	0.0654
AACGACTG	-0.173
CCAGCCCC	-0.386
CACTTAGC	-0.0109
CGGCACGA	-0.229
AGGCCATC	-0.213
GACATGCA	-0.116
CCTCCTCA	-0.243
GTGACCCA	-0.217
CGCTTGCC	-0.163
CTAGCATC	0.186
AATGCGAA	0.112
CGAGCCAG	-0.198
CAAGACCC	-0.25
AACCGTGT	-0.0422
TGCACAAA	0.0303
CTATCCAA	0.00992
TAGAAGCA	0.232
CGAATCAC	-0.0354
AGGTTAGC	-0.13
GTACCGAA	0.0505
GGAACGCA	-0.0595
TCACGAAA	-0.0736

Sequence	binding signal [E-score]
CAAGATTA	0.188
AGTATTCC	-0.157
ATGCCAAA	-0.267
AGGTACAC	0.0344
ATTAAGCC	0.0565
CGTCGCTA	0.116
GTGCTGCA	-0.0388
AAAGACTA	0.00582
GGCGGTGA	-0.209
GGTATGAA	0.2
AGTCGACC	-0.119
CATGATTC	-0.12
AATCAAGT	0.00372
AAGGTTAG	-0.0085
ACGGTCGA	-0.0327
AGGAGTAG	0.025
CATTGTTA	0.15
CCCTGCGC	-0.125
CCTTCTGA	-0.231
ATCCAAAA	-0.016
CGACTATC	-0.0436
AAGTCACC	-0.0643
TCTGTTCA	0.00908
GGCCACTA	-0.0902
CTTGTGCC	-0.142

Sequence	binding signal [E-score]
CCAAACCA	-0.0489
AGACTCGG	-0.0684
AGCACTCC	-0.179
ATAGGGGC	-0.324
TTTATAAA	0.367
ATGTGTGA	0.0497
AAATTTTG	0.27
ACGCACAG	-0.135
CGCTTAGC	-0.391
ACGCTATC	0.0688
GAGCAAAA	-0.162
CGCAAACG	-0.0776
ACGGGCTC	-0.119
GACGGGGA	-0.329
CCTCATTC	-0.294
AGAAGGGC	-0.22
GCCACCGA	-0.0465
TCAGTCAA	-0.163
GGGTGTTA	-0.0193
ATAGCTAG	0.273
GCAGGTAC	-0.00983
CGCAGGGC	-0.382
AAAGGGCG	-0.151
ATCGAGAT	0.0642
GTTATAAC	0.211

Sequence	binding signal [E-score]
GCTGAGCA	0.0236
AGTAGAAC	0.267
AGATAAGA	0.0499
ACATCATG	0.0276
ACGGGATG	-0.166
ACGCCAAC	-0.114
CCGCCGTC	-0.318
CTTACCCC	-0.287
ATGTTTTC	0.205
CCCCGATA	-0.136
CGTTTATA	0.171
GGACTGTA	0.116
ACCAGGGG	-0.271
GTACCCGA	0.0636
CCCGTCTC	-0.42
AGAAAGCT	0.19
ACAGGCTG	-0.101
CTTATCGC	0.0133
CACTTAAG	-0.218
AGATGAGC	0.0086
GATACCGC	0.0322
GCGCTAAA	0.0543
CGACTGAC	0.00526
ATAGGGCA	-0.0627
GAAATCAC	0.0294

Sequence	binding signal [E-score]
CGGGGCTA	-0.239
AGTTTCTC	0.274
ATGTGTCC	0.00991
GGAAAACC	-0.181
GATCGCAA	0.0539
GCACCTAC	0.0861
CAAATCAC	0.144
AGTAACGG	0.256
ACAGCTCG	-0.0502
TGCCCACA	-0.087
GCTACTAC	0.198
CGCGTAAA	0.16
AACTAGGC	0.118
GGAGAGAA	0.0161
CGCATATA	0.188
CAGGTTGA	-0.17
AACAAGGG	-0.177
GGCTGAGA	-0.0944
AGGGACTC	-0.392
GAGTGACC	-0.201
GTTATAAA	0.171
ACACACCT	0.159
TAACAACA	-0.0399
GGCCCATA	-0.0355
CGAACAGC	-0.159

Sequence	binding signal [E-score]
GGCTTGCA	-0.123
CGGGGCGA	-0.286
AATGATAA	0.259
AGTATAGA	0.159
GCTAACCA	0.0624
CAGATCGA	0.0233
AGAACTCA	0.133
CAGGGTAA	-0.221
ACGTTCCA	0.0469
CGAAAATC	0.0722
CCAGACAA	-0.259
ACACACTG	-0.228
GTACAAAC	0.327
CCAGAGGC	-0.131
AGCGAGCG	-0.209
AACCGGAC	-0.183
CAGCGGGG	-0.214
CCTATTCG	0.00494
CCGAATGC	-0.127
GTGCAGGA	-0.104
TACACTCA	0.0656
CCTCTCTC	-0.21
CTATTGAA	0.0527
ACAAGCCG	-0.0981
AACAGGTC	-0.114

Sequence	binding signal [E-score]
ACCTGACC	0.136
ACCAGATG	-0.0832
CATTGTAG	0.103
GCAATACA	0.115
CACGTGTC	0.0409
AAACTCAT	-0.00723
CCTCGTGA	-0.104
TCGAGACA	-0.0316
CATAACAC	0.0293
GGGGTCAC	-0.419
TTAAAGAA	-0.0809
ACGGCTGG	-0.163
ATTCAATC	0.15
ATCGGTGA	0.0617
CTGCGAGC	-0.129
TATATCAA	0.316
ACTAGAGC	0.122
ACACCAGC	-0.176
AAGCCTTA	-0.175
ACAGGAGT	0.0409
GCGGCGCA	-0.342
AAGCAGGT	-0.0336
